Laboratory results: the RNAGym collection of RNA variant scans (doi:10.7554/elife.90254)
The source gives no read counts; variants with many changes may rest on few reads.

B1: OR4K15 (parent)
chain: GUUAACGGUCAUAGGCCAUGGAAACUAGGAGCACCAUUUCGCUGCCAGUGAAGAAAUGAACAAAGAAAAUCUGGGCCAGGCAGGCAUCAAAAGAAAUAGUCUUGCGCUCAACCAGAAAGUCUGUAAUCAUUUUAAGGGUA

Variants of: B1
Assay: self-cleavage, relative activity (ratio to wild type); higher = more cleavage; in vitro, sequencing; the parent is a self-cleaving ribozyme

Variant	self-cleavage
GUUAACGGUCAUAGGCCAUGGAAACUAGGAGCGCCAUUCCGCUGCCAGUGAAGAAAUGAACAAAGAAAAUCUGGGCCAGGCAGGCAUCAAAAGAAAUAGUCUCGCGCUCAACCAGAAAGUCUGUAAUCAUUUUAAGGGUA [A33G U39C U103C]	0.58
GUUAACGGUCAUAGGCCAUGGAAACUAGGAGCACCAUUCCGCUGCCUGUGAAGAAAUGAACAAAGAAAAUCUGGGCCAGGCAGGCAUCAAAAGAGAUAGUCUUGCGCUCAACCAGAAAGACUGUAAUCAUUUUAAGGGUA [U39C A47U A95G U120A]	2.26
GUUAACGGUCAUAGGCCAUGGAAACUAGGAGCACCAUUUCGCUGCCAGUGAAGAAAUGAACAAAGUAAAUCUGGGCCCGGCAGGCAUCAAAUGAAAUAGUCUUGCGCUCAACCAGAAAGUCCGUAAUCAUUUUAAGGGUA [A66U A78C A92U U122C]	0.18
GUUAACGGUCAUAGGCCAUGGAAACUAGGAGCACCAUUUCGCUGCCAGUGAUGAAAUGAACUAAGAGAAUCUGGGCCAGGCAGGCAUCAAAAGAAAUAGUCUUGCGCCCAACCAGAAAGUCUGUAAUCAUUUUAAGGGUA [A52U A62U A67G U108C]	0.05
GUUAACGGUCAUAGGCCAUGGAAACUAGGAGCACCAUUUCGCUGCCAGUGAGGAAAUGAGCAAAGAAAAUCUGGGCCAGGCAGGCACCAAGAGAAAUAGUCUUGCGCUCAACCAGAAAGUCUGUAAUCAUUUUAAGGGUA [A52G A60G U87C A91G]	0.19
GUUAACGGUCAUAGGCCAUGGAAACUAGGAGCACCAUUCCGCUGCCAGUGAAGAAAUGAACAAAGAAAAUCUGGGCCAGGCAGGCAUCAAAAGAAAUAGCCCUGCGCUCAACCAGAAAGUCUGUAAUCAUUUUAAGGGUA [U39C U100C U102C]	2.36
GUUAACGGUCAUAGGCCAUGGAAGCUAGGAGCACCAUUUCGCUGCCAGUGAAGAGAUGAGCAAAGAAAAUCUGGGCCAGGCAGGCAUCAAAAGAAAUAGUCUUGCGCUCAACCAGAAAGUCUGUAAUCAUUUUAAGGGUA [A24G A55G A60G]	0.86
GUCAACGGUCAUAGGCCAUGGAAGCUAGGAGCACCAUUUCGCUGCCAGUGAAGAAAUGAACAAAGAAAACCUGGGCCAGGCAGGCAUCAAAAGAGAUAGUCUUGCGCUCAACCAGAAAGUCUGUAAUCAUUUUAAGGGUA [U3C A24G U70C A95G]	1.02
GUUAACGGUCAUAGGCCAUGGAUACUAGGAGCACCAAUUCGCUGCCAGUGAUGAAAUGAGCAAAGAAAUUCUGGGCCAGGCAGGCAUCAAAAGAAAUGGUCUUGCGCUCAACCAGAAAGUCUGUAAUCAUUUUAAGGGUA [A23U U37A A52U A60G A69U A98G]	1.19
GUUAGCGGUCAUAGGCCAUGGAAACUAGGAGCACCAUUUCGCUGCCAGUGAAGAAAUGAACAAAGAAAUUCUGGGCCAGGCAGGCAUCAAAAGAAAUAGUCCUGCGCUCAACCAGAAAGUCUGUAAUCAUUUUAAGGGUA [A5G A69U U102C]	1.32
GUUAACGGUCAUAGGCCAUGGAAACUAGGAGCACCAUCUCGCUGCCAGUGAAGAAAUGAACAAAGAGAAUCUGGGCCAGGCAGGCAUCAAAAGAAAUAGUCUUGCGCUCAACCAGAAAGUCUGUAACCAUUUUAAGGGUA [U38C A67G U127C]	0.7
GUUAACGGUCAUAGGCCAUGGAAACUAGGAGCACCAUUUCGCUGCCAGUGAAGAAAUGAACAAAGAAAAUCUGGCCCAGGCGGGCAUCAGAAGAAAUAGUCUUGCGCUCAACCAGAAAGUCUGUAAUCAUUUUAAGGGUA [G75C A82G A90G]	0.23
GUUAACGGUCAUAGGCCAUGGAGACUAGGAGCACCAUUUCGCUGCCAGUGAAGGAAUGAACAAAGAAAAUCUGGGCCUGGCAGGCAUCAAAAGAAAUAGUCUUGCGCCCAACCAGAAAGUCUGUAAUCAUUUUAAGGGUA [A23G A54G A78U U108C]	0.04
GUUAACGGUCAUAGGCCAUGGAAACUAGGAGCACCAUUUCGCUGCCAGUGAAGAAAUGAACAAAGAAAAUCUGGGCCAGGCAGGCAUCAAAAGAAAUAGUCUUGCGCACAACCUGAAAGUCUGUAAUCAUUUUAGGGGUA [U108A A114U A135G]	0
GUUAACGGUCAUAGGCCGUGGAAGCUAGGAGCACCAUUUCGCUGCCAGUGAAGAAAUGAACAAAGAAAAUCUGGGCCAGGCAGGCAUCAAAAGAAAUAGUCCUGCGCUCAACCAGAAAGUCUGUAAUCAUUAUAAGGGUA [A18G A24G U102C U132A]	0.73
GUUAACGGUCAUAGGCCGUGGAAACUAGGAGCACCAUUUCGCUGCCAGUGAAGAAAUGAACAAAGAUAAUCUGGGCCAGGCAGGCAUCAAAAGAAAUAGUCUUGCGCUCAGCCAGAAAGUCUGUAAUCAUUUUAAGGGUA [A18G A67U A111G]	0.01
GUUAACGGUCAUAGGCCAUGGAAACUAGGAGCACCAUUUCGCUGCCAGUGAAGAAAUGAACAAAGACAAUCUGGGCCAGGCAGGCAUCAAAAGAAAUAGUCUUGCGCUCAACCAGAGAGCCUGUAAUCAUUUUAAGGGUA [A67C A117G U120C]	0.44
GUUAACGGUCAUAGGCCAUGGAAACUAGGAGCACCAUUUCGCUGCCAGUGAAGAAAUGAACGAGGAAAAACUGGGCCAGGCAGGCAUCAAAAGAAAUAGUCUUGCGCUCAACCAGAAAGUCUGUAAUCAUUUUAAGGGUA [A62G A64G U70A]	0.59
GUUAACGGUCAUAGGCCAUGGAAACUAGGAGCACCAUUUCGCUGCCAGUGAAGAAAUGAACAAAGAAAAUCUGGGCAAGGCAGGCAUCAAAAGAGAUAGUCUCGCGCUCAACCAGAAAGUCUGUAAUCAUUUUAAGGGUA [C77A A95G U103C]	0.82
GCUAACGGUCAUAGGCCAUGGAAACUAGGAGCACCAUUUCGCUGCCAGUGGAGAAAUGAACAAAGAAAAUCUGGGCCAGGCAGGCAUCAAAAGAAAUAGUCUUGCGCUCAACCAGAAAGUCUGUAAUCAUUUUAGGGGUA [U2C A51G A135G]	0.68
GUUAACGGUCAUAGGCCAUGGGAACUAGGAGCACCGUUUCGCUGCCAGUGAAGAAAUGAACAAGGAAAAUCUGGGCCAGGCAGGCAUCAAGAGAAAUAGUCUUGCGCUCAACCAGAAAGUCUGUAAUCAUUUUAAGGGUA [A22G A36G A64G A91G]	0.99

Variant	self-cleavage
GUUAACGGUCAUAGGCCAUGGAAACUAGGAGCACCACUUCGCUGCCGGUGAAGAAACGAACAAAGAAAAUCUGGGCCAGGCAGGCAUCAAAAGAAAUAGUCUUGCGCUCAACCAGAAAGUCUGUAAUCAUUUUAAGGGUA [U37C A47G U57C]	0.48
GUUAACGGUCACAGGCCAUGGAAACUGGGAGCACCAUUUCGCCGCCAGUGAAGAAAUGAACAGAGAAAAUCGGGGCCAGGCAGGCAUCAAAAGAAAUAGUCUUGCGCUCAACCAGAAAGUCUGUAACCAUUUUAAGGGUA [U12C A27G U43C A63G U72G U127C]	0.04
GCUAACGGUCAUAGGCCAUGGAAACUUGGAGCACCACUUCGCUGCCAGUGAAGCAAUGAACAAAGAAAAUCUGGGCCAGGCAGGCAUCAAAUGAAAUAGUCUUGCGCUCAACCAGAAAGUCUGUAAUCAUUUUAAGGGUA [U2C A27U U37C A54C A92U]	1.27
GUUAACGGUCAUAGGCCAUGGAAACUAGGAGCACCAUUUCGCUGCCAGUGAAGAAAUGAACAAAGGAAAUCUGGGCCAGGCAGGCAUCAAAAGAAAUAGUCUUGCGCUCAACCAGAAAGUCAGCAAUCACUUUAAGGGUG [A66G U122A U124C U130C A140G]	0
GUUAACGGUCAUAGGCCAUGGGAACUAGGAGCACCAUUUCGCUGCCAGUGAAGAGAUGAACAAAGAAAAUCUGGGCCAGGCAGGCAUCAAAAGAAGUAGUCUUGCGCUCAACCAGAAAGUCUGUAAUCAUUUUGAGGGUA [A22G A55G A96G A134G]	1.78
GUUAACGGUCAUAGGCCAUGGAAACUAGGAGCACCUUUUCGCUGCCAGUGAAGAAAUGAACAAAGGAAAUCUGGGCCAGGCAGGCAUCAAAAGAAAUAGUCUUACGCUCAACCAGGAAGUCUGUAAUCAUUUUAAGGGUA [A36U A66G G104A A116G]	0.01
GUUAACGGUCAUAGGCCGUGGAAACUAGGGGCACCAUUUCGCUGCCAGUGAAGAGAUGAACAGAGAAAAUCUGGGCCAGGCAGGCAUCAAAGGAAAUAGUCUUGCGCUCAACCAGAAAGUCUGUAAUCAUUUUAAGGGUA [A18G A30G A55G A63G A92G]	0.48
GUUAACGGUCAUGGGCCAUGGAAACUAGGAGCACCAUUUCGCUGCCAGUGAAGAAAUGAACAAAGAAAGUCUGGGCCAGGCAGGCAUCAAAAGAAAUAGUCUUGCGCUCAACCAGAAAGUCUGUAAUCUUUUUAAGGGUA [A13G A69G A129U]	1.36
GUUAACGGUCAUAGGCCAUGGAAACUAGGAGCACCAUUUCGCUGCCAGUGAAGAAAUGAGCAAAGGAAAUCUGGGCCAGGCAGGCAUCAAAAGAAAUAAUCUUGCGCUCAACCAGAAAGUCUGUAAUCAUUUUAAGGGUA [A60G A66G G99A]	0.54
GUUAACGGUCAUAGGCCAUGGAAACUAGGAGCUCCAUUUCGCUGCCAGUGAAGAAAUGAACAAAGAAAAUCUGGGCCAGGCAGGCAUCAAAAGAGAUAGUCUUGCGCCCAACCAGAAAGUCUGUAAUCAUUUUAAGGGUA [A33U A95G U108C]	0.02
GUUAACGGUCAUAGGCCAUGGAAACUAGGAGCACCAUUUCGCUGCCAGUGAAGAAAUGAACAAAGAGAAUCUGGGCCAGGCAGGCAUCAAAAGAAAUAGUCUUGCGCUCAACCGGAAAGUCUGUAAUCAUUUUAUGGGUA [A67G A114G A135U]	0.36
GUUAACGGUCUUAGGCCAUGGAAACUAGGAGCACCAUUUCGCUGCCAGUGAAGAAAUGGACAAAGAAAAUCUGGGCCGGGCAGGCAUCAAAAGAAAUAGUCUUGCGCUCAACCAGAAAGUCUGUAACCAUUUUAAGGGUA [A11U A59G A78G U127C]	0.11
GUUAACGGUCAUAGGCCAUGGAAACUAGGAGCACCAUUUCGCUGCCAGUGAAGAAAUGAACAAAGAAAAUCUGGGCCAGGCAGGCAUCAAAAGAAAUAGUCUUGCGCUCGACCAGAGAGUCUGUAAUUAUUUUAAGGGUA [A110G A117G C128U]	0.18
GUUAACGGUCAUAGGCCAUAGAAACUAGGAGCACCAUUUCGCUGCCAGUGAAGAAAUGAACAAAGAAAAUCUGGGCCAGGCAGGCAUCAAAAGAAAUAGCCUUGCGCUCAACCAGAAAGUCUGUAAUCAUUCUAAGGGUA [G20A U100C U132C]	1.79
GUUAACAGUCACAGGCCAUGGAAACUAGGAGCACCAUUUUGCUGCCAGUGAAGAGAUGAACAAAGAAAAUCUGGGCCAGGCAGGCAUCAAAAGAAAUAGUCUUGCGCUCAACCAGAAAGUCCGUAAACAUUUUAAGGGUA [G7A U12C C40U A55G U122C U127A]	0.74
GUUAACGGUCAUAGGCCAUGGAAACUAGGAGCACCAUCUCGCUGCCAGUGAAGAAACGAACAAAGAAAAUCUGGGCCAGGCAGGCAUCAAAAGAAAUAGUCUUGCGCUCAACCAGAAAGUCUGUAAUCAUUUUAAGGGCA [U38C U57C U139C]	0.33
GUUAACGGUCAUAGGCCAUGGAAACUAGGAGCACCAUCUCGCUGCCAGUGAAGAAAUGAACAAAGAAAGUCCGGGCCAGGCAGGCAUCAAAAGAAAUAGUCUUGCGCUCAACCAGAAAGUCUGUAAUCAUUUUAAGGGUA [U38C A69G U72C]	0.21
GUUAACGGUCAUAGGCCAUGGAAACUAGGAGCACCAUCUCGCUGCCAGUGAAGAAAUGAACAAAGGAAAUCUGGGCCUGGCAGGCAUCAAAAGAAAUAGUCUUGCGCUCAACCAGAAAGUCUGUAAUCAUUUUAAGGGUA [U38C A66G A78U]	0.21
GUUAACGGUCAUAGGCCAUGGAAACUAGGAGCAGCAAUUCGCUGCCAGUGUAGAAAUGAACAAAGAAAAUCUGGGCCAGGCAGGCAUCAAAAGAAAUAGUCUUGCGCUCAACCAGGAAGUCUGUAAUCAUUUUAAGGGUA [C34G U37A A51U A116G]	0.65
GUUAACGGUCAUAGGCCAUGGAAACUAGGAGCACCGUUCCGCUGCCAGUGAAGAAGUGAACAAAGAAAAUCUGGGCCGGGCAGGCAUCAAAAGAAAUAGUCUUGCGCUCAACCAGAAAGUCUGUAAUCAUCUUAAGGGUA [A36G U39C A56G A78G U131C]	0.37
